Measurements reported in the supplement of paper PMC3334620.
Over roughly 33,000 sequences, “E-score (-0.5 to 0.5)” has its median near -0.017; the highest 2% begin near 0.3. Some of the results follow.

target: T1, Sut1 (UniProt P53032); assay: PBM E-score (8-mer binding enrichment) (E-score (-0.5 to 0.5)); higher = stronger / more preferred TF binding; most listed sequences are background and not binding sites; conditions: protein concentration: 200 nM; construct: GST-full length
T1 sequence: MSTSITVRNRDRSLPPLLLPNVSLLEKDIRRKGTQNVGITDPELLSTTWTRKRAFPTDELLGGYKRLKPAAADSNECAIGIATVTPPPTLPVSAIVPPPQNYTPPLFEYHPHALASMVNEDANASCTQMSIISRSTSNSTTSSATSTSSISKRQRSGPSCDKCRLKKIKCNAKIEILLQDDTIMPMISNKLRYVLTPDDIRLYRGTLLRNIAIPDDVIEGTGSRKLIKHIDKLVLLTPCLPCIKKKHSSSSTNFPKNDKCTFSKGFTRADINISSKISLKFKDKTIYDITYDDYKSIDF
Procedure, shortened: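 PURExpress in vitro transcription/translation supplied GST-tagged yeast transcription factors, either full-length or DNA-binding domain. Applied at about 100-200 nM to universal all-10-mer Agilent arrays double-stranded by primer extension, the bound protein was detected with fluorescent anti-GST. E-scores, modified Wilcoxon-Mann-Whitney statistics, were given by the Universal PBM Analysis Suite to ungapped eight-base words pooled with their reverse complements after masliner normalisation.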

Sequence | PBM E-score
AGGACCCT | -0.143
ATGCTTTG | 0.105
TATGCATA | 0.165
CATTTAGA | 0.128
ACTTTCCA | 0.0631
TGGTTAAA | 0.159
CTCAGAGA | -0.119
GGGATTAC | -0.0612
ATTCGGCC | -0.0211
GTCATCCA | -0.00237
AAGGAACA | -0.0271
ATATCGTG | -0.016
AATGGCCG | -0.178
GAAGTGCC | -0.0133
CGCACATC | -0.156
CTCTCGTC | -0.149
ACGTTATA | 0.17
AGTGCACC | -0.0859
ACACACAG | -0.0805
CATGCGGA | 0.0328
CCAGGATA | -0.0911
ACAACGGC | -0.139
GTCTACTA | 0.0751
CGCACCCA | -0.196
CAGCACGC | -0.138

Sequence | PBM E-score
ATGATGAG | 0.0508
AGTGCATC | -0.0383
ACAACCCA | 0.11
GTAGTTGA | 0.0996
CGTCGACG | -0.202
AAGGCGGA | 0.159
AAGGGAGG | -0.172
CATCTTAA | 0.0959
GCACCTCA | 0.054
AAATGACG | 0.135
CTCAACGC | -0.31
AACCTGAG | -0.148
CGAGGTAG | -0.239
CGCTTCAG | 0.0152
GAAAGAGC | -0.0889
CCCAAACG | -0.212
CCCACGGC | -0.266
ATGCACGG | -0.114
GCAGGCCA | -0.209
AGGGTCTA | -0.0968
GAATATGA | 0.0941
ACATGAGG | -0.281
ACCGTTGG | -0.175
CATTAGTC | 0.0587
CTTTTACA | 0.141

Sequence | PBM E-score
ACGGGGTC | 0.0521
ATTCAGCC | -0.123
ATCCCACA | -0.101
GGTGTAAC | 0.0484
CGAAAGAC | 0.26
ACGGCGCA | -0.0471
TGAGTGAA | -0.0239
GATGTCCA | 0.00169
GAGATACC | 0.0113
CAAGGAAG | -0.0615
ATCCCTTG | -0.235
GTAGGGCA | -0.136
CACCTCAC | 0.0572
AGGCAGCG | -0.171
ATCAGAAG | 0.0238
GCCGGACC | 0.198
CTTGTATC | 0.0674
GTGAAAGA | 0.131
TACCGCGA | -0.0297
AGTAGTTG | 0.114
CTGACCTC | -0.121
AAATCGTG | 0.166
AAAAAACG | 0.258
CTATCGCC | -0.0559
AAGCAACT | 0.0884

Sequence | PBM E-score
GGAATTTA | 0.085
CGGTGATA | 0.0301
AACCTCCC | -0.165
CGCTAATC | -0.147
CCGTTAGC | -0.0378
CAGATTCC | -0.0513
CTGATGAC | -0.064
ACCAATCT | -0.0113
GCGGATGA | 0.14
CATGAGAG | -0.029
ACCCTCGC | -0.285
ATACAATA | 0.299
GTGGATCA | -0.172
ACACCTCC | -0.165
AGGCGTTG | -0.0499
AACCCGTC | -0.294
GCAGTAAC | -0.144
GTCGCCGA | -0.183
ATACTCTA | 0.138
GAGACACA | -0.0324
AAAAACTA | 0.273
ACTTCAAC | 0.0443
AGAACCGC | 0.0888
AGACACTC | 0.0339
CGTGTGGA | -0.214

Sequence | PBM E-score
TACCGCTA | -0.217
TAGCCGAA | 0.0372
CTTAGTCC | 0.113
TCACTAGA | 0.054
CAGTAATG | 0.00981
ACACCCAC | -0.037
CCTCGGCC | 0.0111
CGTTATAC | -0.062
AGTAACTA | 0.0542
CAAATAAG | -0.0767
CATTCAAC | 0.0914
ATTAGATG | 0.303
TTAAAGAA | 0.203
CATCCGGC | 0.0355
TAAGGGAA | -0.116
ACCATGAA | 0.099
ACCAAACT | -0.0181
GTGGTCCA | -0.141
GTGCATAA | 0.0529
ATGCCAGA | -0.126
CGGGCGCC | -0.17
GCTTCCAC | -0.0573
AGTTGGCC | -0.0795
GCCCAAGA | -0.171
AAGATCCT | 0.089

Sequence | PBM E-score
AATTGAGG | -0.0114
ATATATCA | 0.105
ACCGCCTC | -0.244
CTATTCAG | 0.0165
ACAGATCT | 0.0682
AAGGTCGC | 0.041
ACGGGACA | -0.188
CAGATTTA | 0.189
AAGGCAAC | -0.0594
AATCACCC | 0.0421
GCTGTAAC | 0.0343
AGAGGGGC | -0.22
AAAGATAC | 0.118
GCTAGTCA | -0.115
AGCGACTC | -0.0899
GTGGTGTA | 0.0594
AATAAATA | 0.374
GGTGAAAA | 0.128
CGCAGAGA | -0.137
TGAGTTAA | -0.00085
AATAAAGG | -0.0466
AGCTCCTG | -0.238
AGAAGCCG | -0.0155
AGGGCACC | -0.273
CCCAAGAG | -0.275

Sequence | PBM E-score
GATCTCCC | -0.249
ATGCAGTC | -0.153
ACAACAAT | 0.139
AGCTATTC | -0.0453
ACTTGGCT | -0.0968
CACCCGAG | -0.139
CTAACAGA | 0.0721
GGCGCTCA | -0.175
AGAGCATC | -0.0328
GGCGGCGA | 0.0217
GTACAATA | 0.0857
TACGGCGA | 0.0961
CCTATAAC | 0.00269
CCGAGTAC | -0.0417
CAGACCTC | -0.244
ACTCCCTG | -0.173
GGGGGCAA | -0.211
ATATATCG | 0.119
AAGTCGTA | 0.0802
AGTCAACA | 0.13
CAGGGCAA | -0.137
AAAAGTCT | 0.102
